Among the data in PubChem BioAssay (NCI) are TGI and GI50 values, retold here.

Values joined by “and” are separate entries in the source; they are usually repeats but may differ in a detail not shown here. Equal entries are not always repeated.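 Five compound concentrations were applied to cells in 96-well plates for 48 hours; endpoints were derived by simple linear interpolation of the resulting dose-response curve. GI50: concentration for 50% inhibition of growth. TGI denotes the concentration required for complete inhibition of growth.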

This test has as its system NCI-H322M lung. Put plainly: NCI tumour cell line growth inhibition, 48 h.
Compound `CCOCN1COCN(C)C1=O` showed a TGI above 100 µM.
`O=C(CNc1c(Cl)cccc1Cl)NC1C=Cc2ccc(S(=O)(=O)Nc3c(Cl)cccc3Cl)cc2C1=O` (stereo not given): the TGI is above 100 µM.
Same read-out and setting: to `O=C(NCCCN(CCCCN(CCCNC(=O)C(F)(F)F)Cc1ccc2ccccc2c1)Cc1ccc2ccccc2c1)C(F)(F)F` belongs above 100 µM; to `CC(C)CCC[C@@H](C)C1CCC2[C@@H]3CC=C4C[C@@H](C(=O)NCCN(C)C)CC[C@]4(C)C3CC[C@@]21C` (stereo not given in full), above 100 µM.
On to `CC(C)(C)[Si](C)(C)OC1[C@@H](CNC(=O)NC(=O)CCl)O[C@@H](n2cnc3c(N)ncnc32)[C@H]1O[Si](C)(C)C(C)(C)C` (stereo not given in full), for which the GI50 was 9.73 µM and the TGI is 17.5 µM.
`C[C@@H](Cl)[C@H]1CCCN(Cc2ccc(Br)cc2)C1` had a TGI above 12.5 µM.
On the same count and under the same terms, to `CN(C)CCNCCN` belongs above 100 µM; to `CCOP(=O)(OCC)C(C(=O)OC)C(=O)C(=O)Nc1ccc(Cl)cc1Cl` (stereo not given), above 100 µM; to `S=c1[nH]c2ccc(Br)cc2c(=S)s1`, 81.6 µM.
On the same count and under the same terms, the result for `NCCCN1CCN(CCCNc2ccc3nnn4c5ccccc5c(=O)c2c34)CC1` reads 68.4 µM.
Compound `CC[n+]1[b-](C(C)(C)C)n(/N=C/C(C)(C)C)[b-](C(C)(C)C)[n+]1CC` displayed a TGI above 100 µM.
Take `CCOC(=O)NC(=O)c1cn(C2CCCCC2)c(=O)[nH]c1=O`: the TGI was above 100 µM.
Regarding `O=C1Sc2ccccc2C(=O)N2CSCC12` (stereo not given), the TGI is above 100 µM.
In turn, `CCc1c[n+]([O-])c(C)cc1[N+](=O)[O-]` showed a TGI above 100 µM.
Still for that read-out and setting: to `CCC1CN2CCc3cc(OC)c(OC)cc3C2CC1CC1c2cc(OC)c(OC)cc2CCN1C(=O)C1CCCN1` (stereo not given) belongs above 100 µM.
For the compound `O=C1Nc2ccccc2/C1=C1\CCc2cc(O)ccc21`, the GI50 is 8.92 µM and the TGI was above 25 µM.
On to `O=C(Cc1ccccc1)NN1C(=O)/C(=C\c2ccccc2)SC1=Nc1ccccc1`, for which the TGI was above 100 µM.
`O=C(Nc1ccccc1F)c1cc2ccc(O)cc2oc1=Nc1ccccc1F` came in with a TGI of 4.6 µM.
Same read-out and setting: the result for `NNC1=N/C(=C\c2ccco2)C(Cl)=N1` reads above 100 µM; that for `C/C1=C\CC[C@@]2(C)O[C@@H]2C[C@@H](C2(C)CO2)CC/C(C)=C/CC1` (stereo not given in full), 69 µM.
On to `COc1cc2cc(Oc3ccc(NC(=O)c4cc(C(F)(F)F)cc(C(F)(F)F)c4)cc3)c(C)nc2cc1OC`, for which the GI50 is above 50 µM and the TGI is above 50 µM.
With `c1coc(-c2c3ccc(=[N+]4CCCCC4)cc-3oc3cc(N4CCCCC4)ccc23)c1`, the GI50 was 0.176 µM and the TGI stood at 0.55 µM.
The compound `CNc1ncnc2c1cnn2COCC(O)CO` (stereo not given) gave a TGI above 100 µM.
As to `CC(C)[C@H](O)C(=O)N[C@@H](C)C(=O)N[C@@H]1C(=O)N(C)CCc2ccccc21`, the GI50 was above 100 µM and the TGI was above 100 µM.
`CC(C)(C)OC(=O)NCCC(N)=S` gave a TGI above 100 µM.
Consider `COc1cc(/C=C\c2cc(OC)c(OC)c(OC)c2)cc(N/C=C\C(=O)c2c[nH]c3ccccc23)c1OC`, for which the GI50 was 1.2 µM and the TGI was 16.6 µM.
For `COc1cccc(/C=N/[N-]C(=O)c2ccncc2)c1[O-].COc1cccc(/C=N/[N-]C(=O)c2ccncc2)c1[O-].[O]=[U](=[O])([OH2+])[OH2+]`, the GI50 is 4.34 µM and the TGI is above 100 µM.
In the case of `O=C1CCCN1c1ccccc1I(=O)=O`, the GI50 is above 100 µM and the TGI was above 100 µM.
For the compound `O=[N+]([O-])c1ccc(/C=C/c2cc(-c3ccccc3)nc3ccc4ccccc4c23)cc1`, the TGI is above 100 µM.
On to `N[C@H](CCC(=O)N[C@@H](Cc1c[nH]c2ccccc12)C(=O)O)C(=O)O`, for which the GI50 was above 100 µM and the TGI was above 100 µM.
As for `Cn1cc(-c2csc(-c3cn(CCCCN4CCCCC4)c4ccccc34)n2)c2cccnc21`, the GI50 was 1.71 µM and the TGI stood at 3.1 µM.
Take `CC(C(=O)c1ccc(Cl)cc1)/C(=N/NC(=O)NN)C(=O)Nc1cccc(C(F)(F)F)c1` (stereo not given): the TGI is above 100 µM.
Still for that read-out and setting: the result for `O=C1CC(C(O)(C(F)(F)F)C(F)(F)Cl)CCC1C(O)(C(F)(F)F)C(F)(F)Cl` (stereo not given) reads above 10 µM; that for `CCNC(=O)/C(=C/c1ccc(OC)cc1)c1cc(OC)c(OC)c(OC)c1`, above 100 µM; that for `O=C(CC(=O)C1CCOC1=O)C(=O)Nc1cccc(Cl)c1` (stereo not given), above 100 µM.
In turn, `CC(C(=O)N1C(=O)N(C(=O)C(C)C(O)c2ccccc2)C2CCCCC21)C(O)c1ccccc1` (stereo not given) registered a TGI above 100 µM.
As to `C#CCOc1cccc(Nc2ncnc3c(NC(=O)C=C)cccc23)c1`, the GI50 is 26.3 µM and the TGI is above 100 µM.
The matching figures for `O=C(O)c1cccc(COc2ccc([N+](=O)[O-])cc2Cl)c1`: 36.9 µM and above 100 µM.
Consider `CCOC(=O)NC(=O)c1cn(C(CC)COC(=O)NCCCCCCNC(=O)OCC(CC)n2cc(C(=O)NC(=O)OCC)c(=O)[nH]c2=O)c(=O)[nH]c1=O` (stereo not given), for which the TGI is above 100 µM.
Still for that read-out and setting: the result for `CC(=O)OCC1OC(n2cc(I)c(=O)[nH]c2=O)C(OC(C)=O)C(OC(C)=O)C1OC(C)=O` (stereo not given) reads above 100 µM; that for `CC1=NN(C(=O)CC(=O)Nc2ccccc2F)C(=O)C1N=Nc1ccccc1[N+](=O)[O-]` (stereo not given), above 100 µM.
Compound `CCCCNC(=S)N/N=C/c1cccc(C)n1` displayed a TGI above 100 µM.
The compound `C=Cc1ccc(C)[n+](C[Si](C)(C)O[Si](C)(C)C[n+]2cc(C=C)ccc2C)c1` gave a TGI above 100 µM.
On the same count and under the same terms, the result for `Cc1c(N2C(=O)C(Cl)C2c2ccc(Cl)cc2)c(=O)n(-c2ccccc2)n1C` (stereo not given) reads above 100 µM.
Same read-out and setting: to `COc1c(O)c2c3c(c(C)cc(O)c3c1O)C(=O)C(O)(C(C)(C)C(C)=O)C2=O` (stereo not given) belongs above 100 µM.
For `CC(C)c1[nH]nc2c1N=C(c1ccccc1Cl)c1cc([N+](=O)[O-])ccc1N2`, the GI50 was 9.97 µM and the TGI was above 25 µM.
Compound `COC(C)(C)[C@@H](O)[C@H]1C[C@H](C)[C@@]2(CC[C@]3(C)[C@@H]2CC[C@@H]2[C@@]4(C)CC[C@@H](OC(C)=O)C(C)(C)[C@@H]4C[C@@H](OC4OC(COC(C)=O)C(O)C(O)C4O)[C@]23C)O1` (stereo not given in full) gave a TGI of 4.48 µM.
Take `Nc1cc(Br)c(-c2nnc(CCC(=O)c3nc4ccccc4[nH]3)o2)c(Br)c1`: the GI50 was 8.15 µM and the TGI is above 100 µM.
Regarding `CCCc1cc(=O)n2c(C(=O)Nc3ccc(Cl)cc3C)c(C(=O)Nc3ccc(F)cc3)sc2n1`, the GI50 is 46.8 µM and the TGI is above 150 µM.
As for `Cc1ccc(CC[P+](=O)CCc2ccc(C)nc2)cn1`, the TGI was above 100 µM.
Take `Cc1cc(Nc2nc(-c3cn(-c4ccc(Cl)cc4)nn3)nc3ccccc23)n[nH]1`: the GI50 was 6.99 µM and the TGI is above 50 µM.
`ClC(Cl)=C1C(=C(Cl)Cl)C(Cl)(Cl)C1(Cl)Cl` had a TGI of 27.3 µM.
Same read-out and setting: the result for `CN(C(=O)c1ccc([N+](=O)[O-])cc1)c1ccccc1` reads above 100 µM.
Turning to `NNCCc1ccc(NC(=O)CCCc2ccc(C(=O)Nc3ccccc3N)cc2)cc1`, the GI50 is 12.1 µM and the TGI was above 100 µM.
Compound `S=C(/N=c1\sc(Nc2ccc(Cl)cc2)nc2sc3c(c12)CCN(N1CCc2c(sc4nc(Nc5ccc(Cl)cc5)s/c(=N\C(=S)Nc5ccc(Cl)cc5)c24)C1)C3)Nc1ccc(Cl)cc1` gave a TGI of 47.5 µM.
Still for that read-out and setting: the result for `Cn1c(=O)nc2n(-c3cc(C(F)(F)F)cc(C(F)(F)F)c3)c3ccccc3nc-2c1=O` reads above 100 µM.
On the same count and under the same terms, to `Nc1c(-c2ccccc2-c2c(N)[n+]([O-])c3ccccc3[n+]2[O-])[n+]([O-])c2ccccc2[n+]1[O-]` belongs above 100 µM; to `CCOC(=O)c1c(-c2ccccc2)c(-c2ccccc2)cn1C`, above 10 µM.
The same measure, in the same setting: to `COc1nc2ncc([C@@H](OC(C)=O)[C@@H](COC(C)=O)OC(C)=O)nc2c(=O)[nH]1` belongs above 100 µM.
`CN(C)C(=S)SSC(=S)N(C)C`: the GI50 was 23.5 µM and 58.5 µM and 28.3 µM; the TGI is 70.5 µM and > 100 µM and > 61.8 µM.
`N#CC(N=Nc1ccc(Cl)cc1)c1nc2ccccc2o1` (stereo not given): the TGI was above 100 µM.
Consider `CN(Cc1ccccc1)c1cc(=O)n(C)c(=O)[nH]1`, for which the TGI was above 100 µM.
The same measure, in the same setting: to `CC12CCC3C(CCC4CC(OC(=O)Cc5ccc(N(CCCl)CCCl)cc5)CCC43C)C1CCC(=O)N2` (stereo not given) belongs 32.3 µM; to `CCN1CCCC(NCc2c3ccccc3c(CNC3CCCN(CC)C3)c3ccccc23)C1` (stereo not given), above 59.4 µM.
Take `Cc1cn(-c2cc(C(=O)Nc3cccc(-n4ccc5c(NC(=O)c6ccccc6)nccc54)c3)cc(C(F)(F)F)c2)cn1`: the GI50 is 0.58 µM and the TGI came out at 17 µM.
Consider `Cn1ccnc1C(O)(c1nccn1C)c1nccn1C`, for which the TGI is above 100 µM.
The compound `CC1=C2C(=C[C@H]3[C@]4(C)CCCC(C)(C)[C@H]4CC[C@]34O[C@H]24)OC1=O` came in with a TGI above 100 µM.
Same read-out and setting: to `Nc1nc(-c2ccc(Cl)c([N+](=O)[O-])c2)cs1` belongs above 100 µM.
With `COc1ccc(-c2nc(-c3cc(OC)cc(OC)c3)[nH]c2-c2ccc(OC)cc2)cc1`, the GI50 was above 100 µM and the TGI was above 100 µM.
Turning to `Nc1ccc(-c2nc3ccccc3s2)cc1C(F)(F)F`, the TGI amounted to 28.9 µM.
As to `COC(=O)c1cc2c(o1)-c1nccc3c1c(nc1ccccc13)C2=O`, the GI50 is 12.4 µM and the TGI amounted to 25.6 µM.
The compound `Nc1nc(Cl)cc(NCC2(CO)CCC(CCc3ccccc3)C2)n1` (stereo not given) came in with a TGI of 25 µM.
The same measure, in the same setting: to `O=c1[nH]cnc2c1ncn2[C@@H]1C[C@@H]1CO` belongs above 100 µM.
For the compound `CCC1=NC(C(F)(F)F)(C(F)(F)F)N=C(N2CCOCC2)O1`, the TGI was above 100 µM.
In the case of `COC(=O)C1C(O)C(C(=O)OC)C(C)N(C)C1C` (stereo not given), the TGI is above 100 µM.
Still for that read-out and setting: the result for `CC(=O)c1cccn1/C=C(\OC(=O)OC(C)(C)C)c1ccc[nH]1` reads above 100 µM; that for `O=C1NCCS(=O)(=O)N[C@@H](CC2=CC=CCC2)C(=O)N2CCCC12` (stereo not given in full), above 100 µM; that for `O=c1ccn(C2OC(CO)C(P(=O)(O)O)C2O)c(=O)[nH]1` (stereo not given), above 100 µM.
The same measure, in the same setting: the result for `C=CCNC(=S)N=Nc1c(O)[nH]c2ccc([N+](=O)[O-])cc12` reads above 100 µM.
As to `COc1ccc(-c2nccn2-c2ccc(OC)cc2)cc1`, the GI50 is 34.9 µM and the TGI is above 100 µM.
The compound `COc1ccc(-c2c3c([nH]c(=S)c2C#N)CC(C)(C)CC3=O)cc1` showed a TGI above 100 µM.
Consider `OC(c1cc(-c2ccc(C(F)(F)F)cc2)nc(C(F)(F)F)c1)C1CCCCN1` (stereo not given), for which the GI50 was 1.98 µM and 3 µM; the TGI is 4.77 µM and 10.2 µM.
